Assay results as given in a compilation of properties of binary mixtures (doi:10.1080/00986445.2015.1114477).
The densities may have been worked out from excess volumes.

Experiment: xn = mol fraction of the nth substance listed
Settings: 100 kPa

CN1CCCC1=O + CCCCCCCCn1cc[n+](C)c1.[Cl-]
x1 = 1
Settings	mass density [kg/m3]
288.15 K	1037
298.15 K	1028.1
303.15 K	1023.6
308.15 K	1019.1
313.15 K	1014.7
323.15 K	1005.8
328.15 K	1001.3
333.15 K	996.8

CN1CCN(C)C1=O + CCCCCCCCn1cc[n+](C)c1.[Cl-]
mass density [kg/m3]
Settings	288.15 K	293.15 K	298.15 K	303.15 K	308.15 K	313.15 K	318.25 K	323.15 K	328.15 K	333.15 K
x2 = 0	1060.8	1056.3	1051.9	1047.5	1043.1	1038.7	–	1029.9	1025.5	1021.1
x2 = 0.105	1055.7	1051.6	1047.6	1043.6	1039.5	1035.5	1031.5	1027.5	–	1019.5
x2 = 0.2056	1049.5	1045.7	1041.9	–	1034.3	1030.5	1026.7	1023	1019.2	1015.5
x2 = 0.3018	–	1040.5	1036.8	1033.2	1029.6	1026	–	1018.8	1015.2	1011.7
x2 = 0.3991	1039.2	–	1032.1	1028.6	1025.1	1021.6	1018.2	1014.8	–	1007.9
x2 = 0.4964	–	1031.2	1027.8	–	1021	–	1014.2	–	1007.6	1004.3
x2 = 0.6016	1029.9	1026.7	1023.4	1020.2	1016.9	1013.6	1010.3	1007.1	1003.9	1000.7
x2 = 0.7007	1025.9	1022.7	1019.5	1016.4	1013.2	1010.1	1007	1003.8	1000.6	–
x2 = 0.7994	1022.2	–	1016	1013	–	–	1003.8	1000.8	997.7	994.7
x2 = 0.8988	1018.9	1015.8	1012.8	1009.8	1006.8	1003.9	1000.9	997.9	995	–

CN1CCCC1=O + CCCCCC[n+]1ccn(C)c1.[Cl-]
x1 = 1
Settings	mass density [kg/m3]
288.15 K	1037
293.15 K	1032.5
298.15 K	1028.1
303.15 K	1023.6
308.15 K	1019.1
313.15 K	1014.7
318.25 K	1010.2
323.15 K	1005.8
328.15 K	1001.3
333.15 K	996.8

CN1CCN(C)C1=O + CCCCCC[n+]1ccn(C)c1.[Cl-]
mass density [kg/m3]
Settings	288.15 K	293.15 K	298.15 K	303.15 K	308.15 K	313.15 K	318.25 K	323.15 K	328.15 K	333.15 K
x2 = 0	–	1056.3	1051.9	1047.5	–	1038.7	1034.3	1029.9	–	1021.1
x2 = 0.1007	–	1058.5	1054.4	1050.4	1046.3	1042.3	–	–	1030.2	1026.2
x2 = 0.1999	1062.1	1058.2	1054.4	–	–	1043	1039.2	1035.4	1031.6	1027.8
x2 = 0.2985	1060.9	1057.2	1053.6	1049.9	1046.3	1042.7	1039.1	–	1032	–
x2 = 0.3856	1059.6	1056.1	1052.5	1049	–	1042.1	–	1035.2	1031.8	1028.4
x2 = 0.4985	1057.2	1053.8	1050.5	1047.1	1043.8	1040.5	1037.2	–	1030.6	1027.3
x2 = 0.6069	1054.4	1051.2	1048	1044.8	1041.6	1038.4	1035.2	1032.1	1028.9	1025.7
x2 = 0.6969	1052.2	1049	1045.9	1042.8	1039.7	1036.6	–	1030.4	1027.3	1024.2
x2 = 0.7981	1049.5	1046.5	1043.4	1040.4	1037.3	1034.3	1031.4	1028.4	1025.4	1022.4
x2 = 0.8903	1047.2	–	1041.2	–	1035.3	1032.3	1029.4	1026.5	–	1020.6

CCCCCCCCn1cc[n+](C)c1.[Cl-] + CN1CCCC1=O
mass density [kg/m3]
Settings	288.15 K	293.15 K	298.15 K	303.15 K	308.15 K	313.15 K	318.25 K	323.15 K	328.15 K	333.15 K
x2 = 0	1015.3	1012.3	1009.4	–	1003.5	1000.6	997.7	994.8	991.9	989
x2 = 0.1041	1017	1013.9	1010.9	1007.9	1004.9	1001.9	999	996	993	990.1
x2 = 0.21	1019.1	1016.1	1013	1009.9	1006.8	1003.8	–	–	–	991.6
x2 = 0.3221	1021.5	–	–	1012	1008.9	1005.7	1002.5	999.3	996.2	993
x2 = 0.43	1024.1	1020.8	1017.5	1014.2	1010.9	1007.6	1004.3	1001	997.8	994.5
x2 = 0.5321	1026.5	1023.1	1019.7	1016.2	1012.8	1009.4	–	1002.7	999.3	996
x2 = 0.6343	1029	1025.5	1021.9	1018.4	1014.8	1011.3	1007.8	1004.3	1000.8	997.4
x2 = 0.7195	1031.2	1027.6	1023.9	1020.2	–	1012.9	1009.3	1005.6	1002	998.4
x2 = 0.8143	1033.7	1029.9	1026	1022.2	1018.3	1014.5	–	–	1003	999.2
x2 = 0.9085	1036.1	1032	1027.9	1023.8	–	1015.6	–	1007.4	1003.3	999.2

CCCCCC[n+]1ccn(C)c1.[Cl-] + CN1CCCC1=O
mass density [kg/m3]
Settings	288.15 K	293.15 K	298.15 K	303.15 K	308.15 K	313.15 K	318.25 K	323.15 K	328.15 K	333.15 K
x2 = 0	–	1041.6	1038.6	1035.7	1032.8	1029.9	1027.1	–	1021.3	–
x2 = 0.11	1045.2	1042.2	1039.2	1036.2	1033.2	–	–	1024.3	1021.3	1018.3
x2 = 0.2211	1045.9	1042.8	–	1036.6	–	1030.4	–	1024.2	1021.2	1018.1
x2 = 0.3181	1046.5	1043.3	–	1036.9	1033.7	1030.5	1027.3	–	1020.9	1017.8
x2 = 0.4223	1046.8	–	1040.2	–	1033.5	1030.2	–	–	–	1017.1
x2 = 0.5271	1046.9	1043.4	–	1036.4	1033	1029.6	1026.1	1022.8	1019.4	1016
x2 = 0.6327	1046.5	1042.9	1039.3	1035.7	1032.1	–	1025	1021.5	1018	1014.5
x2 = 0.718	1045.8	1042.1	–	1034.7	–	–	1023.6	1019.9	–	1012.6
x2 = 0.8139	1044.5	1040.6	–	1032.8	–	1025	1021.2	1017.3	1013.4	1009.6
x2 = 0.9083	1042.2	1038	1033.9	1029.7	1025.6	–	1017.4	1013.2	1009.1	–

CCCCCCCCn1cc[n+](C)c1.[Cl-] + CN1CCN(C)C1=O
x1 = 1
Settings	mass density [kg/m3]
288.15 K	1015.3
293.15 K	1012.3
298.15 K	1009.4
303.15 K	1006.5
308.15 K	1003.5
313.15 K	1000.6
323.15 K	994.8
328.15 K	991.9
333.15 K	989

CCCCCC[n+]1ccn(C)c1.[Cl-] + CN1CCN(C)C1=O
x1 = 1
Settings	mass density [kg/m3]
288.15 K	1044.5
293.15 K	1041.6
298.15 K	1038.6
303.15 K	1035.7
308.15 K	1032.8
318.25 K	1027.1
323.15 K	1024.2
328.15 K	1021.3
